Laboratory results as given in PubChem BioAssay (NCI).
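Test compounds were applied to cells in 96-well plates for 48 hours at 5 doses. GI50: concentration for 50% inhibition of growth. TGI denotes the concentration required for complete inhibition of growth.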

Tested on: NCI-H322M lung
Test: inhibition of tumour cell growth, NCI panel, 48 h

Compound | GI50 | TGI
C#Cc1nc(C(=O)NCCCCCCC(=O)NO)cs1 | 2.21 µM | 16.4 µM
COc1ccc(N2CCN(C3=C(Cl)C(=O)c4ncccc4C3=O)CC2)cc1 | 15.3 µM | 28.7 µM
CC1=C2C(=C[C@@](C)(COS(C)(=O)=O)[C@@H]2O)C(=O)[C@](C)(O)C12CC2 | 0.953 µM | 6.15 µM
O=C(/C=C/c1csc(Br)n1)NO | 2.91 µM | > 100 µM
